Data as given in the supplement of paper PMC7125110.
± gives the standard error. This sample is rich in variants without activity.

B1: glmS ribozyme (parent)
chain: AUAAAAGCGCCAGAACUACAGAAAUGUAGUUGACGAGGAGGAGGUUUAUCGAAUUUUCGGCGGAUGCCUCCAAA

How the values were obtained:
Settings in all cases: with glucosamine-6-phosphate
glucosamine-6-phosphate [1] = variants of: B1; experiment: self-cleavage kobs at 40 uM GlcN6P; higher = faster cleavage; RNA array
Summary of the method: (§1)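 Ribozyme variants carrying barcodes were transcribed in situ on sequenced MiSeq chips by E. coli RNA polymerase and tracked at 37 °C with a hybridised Cy3 probe. They were exposed to 40 μM to 10 mM glucosamine-6-phosphate in HEPES/KCl/Mg(OAc)2 buffer. kobs came from exponential decay fits of normalised per-tile medians, and kcat and KM from weighted Michaelis–Menten fits.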

glucosamine-6-phosphate [2] = variants of: B1; experiment: self-cleavage kobs at 160 uM GlcN6P; higher = faster cleavage; RNA array
Summary of the method: as §1

glucosamine-6-phosphate [3] = variants of: B1; experiment: self-cleavage kobs at 640 uM GlcN6P; higher = faster cleavage; RNA array
Summary of the method: as §1

glucosamine-6-phosphate [4] = variants of: B1; experiment: self-cleavage kobs at 10000 uM GlcN6P; higher = faster cleavage; RNA array
Summary of the method: as §1

glucosamine-6-phosphate [5] = variants of: B1; experiment: self-cleavage kobs at 2500 uM GlcN6P; higher = faster cleavage; RNA array
Summary of the method: as §1

| Variant | self-cleavage kobs at 40 uM GlcN6P (glucosamine-6-phosphate [1]) [s⁻¹] | self-cleavage kobs at 160 uM GlcN6P (glucosamine-6-phosphate [2]) [s⁻¹] | self-cleavage kobs at 640 uM GlcN6P (glucosamine-6-phosphate [3]) [s⁻¹] | self-cleavage kobs at 10000 uM GlcN6P (glucosamine-6-phosphate [4]) [s⁻¹] | self-cleavage kobs at 2500 uM GlcN6P (glucosamine-6-phosphate [5]) [s⁻¹] |
| --- | --- | --- | --- | --- | --- |
| AUAAAAGCGCCAGAACUACAGAAAUGUAGUUGACGAGGAGGGGGUUUAUCGAAUUUUGGGCGGAUACCUCCAAA [A42G C58G G66A] | < 1e-05 | – | – | – | – |
| AUAAAAGCGCCAGAACUACAGAAAUGUAGUUGACGAGGAGGGGGUUUAUCGAAUUUUCGGCGGAUGCAUCCAAA [A42G C68A] | < 1e-05 | – | – | – | – |
| AUAAAAGCGCCAGAACUACAGAAAUGUAGUUGACGAGGAGGGGGUUUAUCGAAUUUUCGGCGGAUGCCUGCAAA [A42G C70G] | 4.1e-05 ± 7.7e-06 | – | – | – | – |
| AUAAAAGCGCCAGAACUACAGAAAUGUAGUUGACGAGGAGGGGCUUUAUCGAAUUUUCGGCGGAUGCCUCCAAA [A42G G44C] | < 1e-05 | < 1e-05 | – | – | – |
| AUAAAAGCGCCAGAACUACAGAAAUGUAGUUGACGAGGAGGGGGUUUAUCGAAUUUUCGACGGAUGCCUCCAAA [A42G G60A] | < 1e-05 | – | < 1e-05 | – | – |
| AUAAAAGCGCCAGAACUACAGAAAUGUAGUUGACGAGGAGGGGGUUUAUCGAAUUUUCGGCCGAUGCUUCAAAA [A42G G62C C68U C71A] | < 1e-05 | – | – | < 1e-05 | – |
| AUAAAAGCGCCAGAACUACAGAAAUGUAGUUGACGAGGAGGGGGUUUAUCGAAUUUUCGGCUGAUGCCUCCAAA [A42G G62U] | < 1e-05 | < 1e-05 | < 1e-05 | < 1e-05 | < 1e-05 |
| AUAAAAGCGCCAGAACUACAGAAAUGUAGUUGACGAGGAGGGGGUUUAUCGAAUUUUCGGCGAAUGCCUCCAAA [A42G G63A] | < 1e-05 | < 1e-05 | < 1e-05 | < 1e-05 | < 1e-05 |
| AUAAAAGCGCCAGAACUACAGAAAUGUAGUUGACGAGGAGGGGGUUUAUCGAAUUUUCGGCGGAUCCCUCCAAA [A42G G66C] | < 1e-05 | – | – | – | – |
| AUAAAAGCGCCAGAACUACAGAAAUGUAGUUGACGAGGAGGGGGUUUAUCGAAAUUUCGGCGGAUGCCUCCAAA [A42G U54A] | 0.000967 ± 0.00013 | 0.00396 ± 0.0011 | 0.029 ± 0.0057 | 0.0172 ± 0.004 | – |
| AUAAAAGCGCCAGAACUACAGAAAUGUAGUUGACGAGGAGGGGGUUUAUCGAAUGUUCGGCGUAUGCCUCCAAA [A42G U55G G63U] | < 1e-05 | – | – | < 1e-05 | – |
| AUAAAAGCGCCAGAACUACAGAAAUGUAGUUGACGAGGAGGGGGUUUAUCGAAUUUUCGGCGGAUGCCACCAAA [A42G U69A] | 0.000758 ± 0.00012 | – | – | – | – |
| AUAAAAGCGCCAGAACUACAGAAAUGUAGUUGACGAGGAGGUGGUUUGUCGAAUUUUCGGCGGAUGCCUCCAAA [A42U A48G] | < 1e-05 | < 1e-05 | < 1e-05 | – | – |
| AUAAAAGCGCCAGAACUACAGAAAUGUAGUUGACGAGGAGGUGGUUUAUCGAGUUUUCGGCGGAUGCCUGCAAA [A42U A53G C70G] | < 1e-05 | – | – | – | – |
| AUAAAAGCGCCAGAACUACAGAAAUGUAGUUGACGAGGAGGUGGUUUAUUGAAUUUUCGGAGGAUGCCUCCAAA [A42U C50U C61A] | < 1e-05 | – | – | < 1e-05 | – |
| AUAAAAGCGCCAGAACUACAGAAAUGUAGUUGACGAGGAGGUGGUUUAUCGAAUUUUUGGCGGAUGCCUCCAAA [A42U C58U] | < 1e-05 | < 1e-05 | < 1e-05 | – | < 1e-05 |
